The list shows a part of the results. At the low end of the ranking the order means little.

The test concerns the target T1, GST-Rok (full length) (UniProt O34857).
T1 sequence: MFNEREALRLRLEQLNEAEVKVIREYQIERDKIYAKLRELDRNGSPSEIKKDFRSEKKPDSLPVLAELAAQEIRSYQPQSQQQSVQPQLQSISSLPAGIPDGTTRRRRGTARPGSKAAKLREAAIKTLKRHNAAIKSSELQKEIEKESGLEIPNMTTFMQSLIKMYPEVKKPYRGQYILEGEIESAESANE
The experiment in a line: protein binding microarray.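 Note: rank score from −0.5 (least bound) to 0.5 (best bound).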 As to conditions: Rok is a gene silencer of Bacillus subtilis; high values mean tight binding; most listed sequences are background and not binding sites; double strand, one strand shown.
On to GAAGCAAC, for which the binding signal turned out to be 0.0226 E-score.

Regarding ACTGCAAC, the binding signal came out at 0.0921 E-score.

ATCGCTCC displayed a binding signal of -0.298 E-score.

In the case of AATGCAAA, the binding signal amounted to 0.0311 E-score.

For the sequence ACAGCGCT, the binding signal is -0.00367 E-score.

On to CTCATACA, for which the binding signal worked out at 0.166 E-score.

GCTCGAGC displayed a binding signal of -0.18 E-score.

The sequence AGCCCATG returned a binding signal of -0.112 E-score.

In turn, AGATTAGA came in with a binding signal of 0.303 E-score.

GTGGCTGA displayed a binding signal of -0.0523 E-score.

With GCACTAAA, the binding signal worked out at 0.146 E-score.

In turn, ACTTCCAA displayed a binding signal of 0.0268 E-score.

GAATTGTA showed a binding signal of 0.254 E-score.

Take CGTCTAAG: the binding signal was -0.083 E-score.

In the case of ATCAAGAG, the binding signal turned out to be 0.119 E-score.

Sequence CTCATAGC showed a binding signal of -0.145 E-score.

In the case of AATGATCC, the binding signal was found to be 0.00785 E-score.

Turning to ACTCGGAT, the binding signal is 0.149 E-score.

In the case of CAATGTGC, the binding signal amounted to 0.14 E-score.

As to ATACTGTG, the binding signal was determined as 0.0179 E-score.

The sequence GATGTAGA displayed a binding signal of 0.209 E-score.

The sequence CCTAGCCA yielded a binding signal of -0.0811 E-score.

Regarding AAATCACT, the binding signal was 0.0315 E-score.

Turning to GGCAACCC, the binding signal was -0.203 E-score.

Take ACCAACGT: the binding signal was -0.0441 E-score.

On to AGCGCAAA, for which the binding signal is 0.0549 E-score.

Regarding GAGGGGGC, the binding signal was -0.397 E-score.

In the case of AAAGTGGC, the binding signal is 0.0515 E-score.

For CTGATACA, the binding signal was 0.207 E-score.

Sequence GAGAGCGA yielded a binding signal of -0.148 E-score.

For AAGCGTCA, the binding signal is -0.0889 E-score.

Sequence ACTCGCAG displayed a binding signal of -0.15 E-score.

GAGCCTGC: the binding signal was -0.271 E-score.

In turn, GACCCACA returned a binding signal of -0.107 E-score.

As to ACAACGCT, the binding signal is -0.0157 E-score.

The sequence AAATATAC registered a binding signal of 0.376 E-score.

In turn, AGAGAGAA yielded a binding signal of -0.0854 E-score.

The sequence TCATTGAA yielded a binding signal of 0.1 E-score.

The sequence ATTGCACC gave a binding signal of 0.127 E-score.

Consider ATAAGCCC, for which the binding signal is -0.214 E-score.

In the case of AAACGCAC, the binding signal was -0.143 E-score.

Regarding AAAGCGGA, the binding signal turned out to be 0.0394 E-score.

TAAGAATA had a binding signal of 0.151 E-score.

Take AATTTATC: the binding signal was 0.242 E-score.

Regarding CGACTAGC, the binding signal is -0.0143 E-score.

Sequence GCCATCGC had a binding signal of -0.225 E-score.

Consider CCGGTCGA, for which the binding signal is -0.102 E-score.

Turning to AAGTGACA, the binding signal was -0.109 E-score.

As for AACTCGGA, the binding signal came to 0.0147 E-score.

ATCCTCGC yielded a binding signal of -0.225 E-score.

For the sequence CGGGGTAG, the binding signal was -0.149 E-score.

For GCTAAACC, the binding signal was -0.102 E-score.

In turn, CCCACCCC came in with a binding signal of -0.433 E-score.

Turning to ACATAGTA, the binding signal is 0.306 E-score.

Sequence ACCCGTCT had a binding signal of -0.228 E-score.

Regarding GAAATTTC, the binding signal was found to be 0.261 E-score.

In turn, ATTCTCAC came in with a binding signal of 0.135 E-score.

In turn, ATGCGCGA displayed a binding signal of 0.146 E-score.

For the sequence CAAACCGA, the binding signal turned out to be 0.0252 E-score.

With TAATGGGA, the binding signal was -0.132 E-score.

CGCCGCCC gave a binding signal of -0.472 E-score.

Regarding CACGGGAG, the binding signal was -0.29 E-score.

CCAACGAC came in with a binding signal of -0.245 E-score.

In turn, GTCGTCAC gave a binding signal of -0.231 E-score.

GGCTGGGA registered a binding signal of -0.396 E-score.

The sequence CAACTTCA showed a binding signal of 0.121 E-score.

With ACCCATAT, the binding signal was 0.0996 E-score.

In turn, GACGAATA yielded a binding signal of 0.164 E-score.

Regarding CAGAGGAC, the binding signal is -0.173 E-score.

For the sequence TGACACCA, the binding signal was -0.0665 E-score.

Sequence AAGAAGGC had a binding signal of -0.308 E-score.

The sequence CTCTGACC displayed a binding signal of -0.389 E-score.

On to AGTAATTC, for which the binding signal was determined as 0.29 E-score.

CCGGCAAC yielded a binding signal of -0.178 E-score.

GCTAGCAC yielded a binding signal of -0.133 E-score.

CGGCTGGC showed a binding signal of -0.279 E-score.

As for CATTCCTA, the binding signal is 0.0121 E-score.

On to CGCTCCGC, for which the binding signal is -0.194 E-score.

With AAAGCACC, the binding signal was -0.159 E-score.

As for ACTTCATA, the binding signal is 0.187 E-score.

CCACCAGC registered a binding signal of -0.118 E-score.

AGAGCTTG: the binding signal is -0.289 E-score.

GGTCCCTA registered a binding signal of -0.204 E-score.

On to CTCTTTAA, for which the binding signal is -0.0984 E-score.

Consider AAGCACCA, for which the binding signal is -0.202 E-score.

AATTTTCA came in with a binding signal of 0.0864 E-score.

For CGTAGCGC, the binding signal is -0.0333 E-score.

As to CACATATC, the binding signal came out at 0.0259 E-score.

In turn, CAACTATC returned a binding signal of 0.192 E-score.

Sequence AGGGGTGC showed a binding signal of -0.404 E-score.

Regarding GCTATATA, the binding signal is 0.389 E-score.

CATTTTGC returned a binding signal of -0.00625 E-score.

Turning to AGCGGTGC, the binding signal was -0.261 E-score.

Turning to ACTGAACT, the binding signal turned out to be 0.162 E-score.

These data come from PMC6212790.
